We go through 10 molecules from publication PMC4019984, “Kinase and channel activity of TRPM6 are co-ordinated by a dimerization motif and pocket interaction” (Biochemical Journal, 2014).

In experiment [1] the target is T1, biotinylated dimerization motif peptide (wild-type) (human).
T1 sequence (peptide, biotin-C6 on the N-terminus): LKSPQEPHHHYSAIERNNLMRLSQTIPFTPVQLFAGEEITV
As to the kind of experiment: pull-down; 1–5 mg HEK-293 lysate incubated with 3 μg biotinylated peptide 10 min at 4°C, then streptavidin beads 5 min; washed with lysis buffer containing 0.15 M NaCl and buffer A; immunoblot with anti-GST or anti-FLAG; only the target purified. In general terms: In western blotting, separated proteins are transferred to a membrane and probed.

Experiment [2] shares this target. The description is as above. This is another data set of the same source.
The target of experiment [3] is T2, biotinylated dimerization motif peptide, mutant (L1718A+L1721A) (human).
T2 sequence (peptide, biotin-C6 on the N-terminus): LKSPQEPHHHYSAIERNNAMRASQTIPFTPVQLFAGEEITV
Described as above.

Experiment [4] addresses T3, fluorescently labelled dimerization motif peptide, mutant (L1718A+L1721A), with C-terminal linker GGCCPGCC (human).
T3 sequence (peptide, labelled with Lumio Green): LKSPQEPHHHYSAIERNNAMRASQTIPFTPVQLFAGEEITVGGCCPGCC
Nature of the experiment: fluorescence polarisation; 100 nM Lumio Green-labelled peptide with increasing concentrations of GST-TRPM6 kinase fragment; room temperature; 25 mM Tris/HCl pH 7.5, 200 mM NaCl, 5 mM 2-mercaptoethanol; one-site specific binding with Hill slope (Hill slope of 1.0); both purified.

Where two headings read alike, the source gives them in different places. These are yes or no findings as the source states them, for the method shown. For some assays here: In cells and extracts the contact can be indirect. Some binding calls cover weakened binding; strength is not graded here. For some assays here: Tags and fused reporters may be left off the sequences shown.

On to “full-length FLAG-tagged TRPM6 kinase-inactive (K1804R) (from UniProt Q9BX84 1-2022)”, for which, in experiment [1], the binding entry was “no binding”.

“full-length FLAG-tagged TRPM6 wild-type (from UniProt Q9BX84 1-2022)”: the binding entry in experiment [1] was “no binding”.

For the molecule “full-length FLAG-tagged TRPM6 L1718A+L1721A (from UniProt Q9BX84 1-2022)”, in experiment [1], the binding entry was “binds”.

B1: GST-tagged TRPM6-(1730–end), expressed in HEK-293 cells (domain or fragment, UniProt Q9BX84 1730-2022)
chain: VQLFAGEEITVYRLEESSPLNLDKSMSSWSQRGRAAMIQVLSREEMDGGLRKAMRVVSTWSEDDILKPGQVFIVKSFLPEVVRTWHKIFQESTVLHLCLREIQQQRAAQKLIYTFNQVKPQTIPYTPRFLEVFLIYCHSANQWLTIEKYMTGEFRKYNNNNGDEITPTNTLEELMLAFSHWTYEYTRGELLVLDLQGVGENLTDPSVIKPEVKQSRGMVFGPANLGEDAIRNFIAKHHCNSCCRKLKLPDLKRNDYSPERINSTFGLEIKIESAEEPPARETGRNSPEDDMQL
With B1, the figures for the binding entry in experiment [2] and in experiment [3] were “binds” and “no binding”, respectively.

B2: GST-tagged TRPM6-(1730–end) A1836N, expressed in HEK-293 cells (domain or fragment, UniProt Q9BX84 1730-2022)
chain: VQLFAGEEITVYRLEESSPLNLDKSMSSWSQRGRAAMIQVLSREEMDGGLRKAMRVVSTWSEDDILKPGQVFIVKSFLPEVVRTWHKIFQESTVLHLCLREIQQQRNAQKLIYTFNQVKPQTIPYTPRFLEVFLIYCHSANQWLTIEKYMTGEFRKYNNNNGDEITPTNTLEELMLAFSHWTYEYTRGELLVLDLQGVGENLTDPSVIKPEVKQSRGMVFGPANLGEDAIRNFIAKHHCNSCCRKLKLPDLKRNDYSPERINSTFGLEIKIESAEEPPARETGRNSPEDDMQL
For the molecule B2, in experiment [2], the binding entry was “no binding”.

B3: GST-tagged TRPM6-(1730–end) Q1832K, expressed in HEK-293 cells (domain or fragment, UniProt Q9BX84 1730-2022)
chain: VQLFAGEEITVYRLEESSPLNLDKSMSSWSQRGRAAMIQVLSREEMDGGLRKAMRVVSTWSEDDILKPGQVFIVKSFLPEVVRTWHKIFQESTVLHLCLREIKQQRAAQKLIYTFNQVKPQTIPYTPRFLEVFLIYCHSANQWLTIEKYMTGEFRKYNNNNGDEITPTNTLEELMLAFSHWTYEYTRGELLVLDLQGVGENLTDPSVIKPEVKQSRGMVFGPANLGEDAIRNFIAKHHCNSCCRKLKLPDLKRNDYSPERINSTFGLEIKIESAEEPPARETGRNSPEDDMQL
As to B3, in experiment [2], the binding entry is “no binding”.

B4: GST-tagged TRPM6-(1730–end), E. coli-purified (domain or fragment, UniProt Q9BX84 1730-2022)
chain: VQLFAGEEITVYRLEESSPLNLDKSMSSWSQRGRAAMIQVLSREEMDGGLRKAMRVVSTWSEDDILKPGQVFIVKSFLPEVVRTWHKIFQESTVLHLCLREIQQQRAAQKLIYTFNQVKPQTIPYTPRFLEVFLIYCHSANQWLTIEKYMTGEFRKYNNNNGDEITPTNTLEELMLAFSHWTYEYTRGELLVLDLQGVGENLTDPSVIKPEVKQSRGMVFGPANLGEDAIRNFIAKHHCNSCCRKLKLPDLKRNDYSPERINSTFGLEIKIESAEEPPARETGRNSPEDDMQL
Consider B4, for which, in experiment [4], the binding result was “no binding”.

B5: GST-tagged TRPM6-(1730–end) L1840A, expressed in HEK-293 cells (domain or fragment, UniProt Q9BX84 1730-2022)
chain: VQLFAGEEITVYRLEESSPLNLDKSMSSWSQRGRAAMIQVLSREEMDGGLRKAMRVVSTWSEDDILKPGQVFIVKSFLPEVVRTWHKIFQESTVLHLCLREIQQQRAAQKAIYTFNQVKPQTIPYTPRFLEVFLIYCHSANQWLTIEKYMTGEFRKYNNNNGDEITPTNTLEELMLAFSHWTYEYTRGELLVLDLQGVGENLTDPSVIKPEVKQSRGMVFGPANLGEDAIRNFIAKHHCNSCCRKLKLPDLKRNDYSPERINSTFGLEIKIESAEEPPARETGRNSPEDDMQL
Regarding B5, the binding result in experiment [2] was “no binding”.

B6: GST-tagged TRPM6-(1730–end) L1743A, expressed in HEK-293 cells (domain or fragment, UniProt Q9BX84 1730-2022)
chain: VQLFAGEEITVYRAEESSPLNLDKSMSSWSQRGRAAMIQVLSREEMDGGLRKAMRVVSTWSEDDILKPGQVFIVKSFLPEVVRTWHKIFQESTVLHLCLREIQQQRAAQKLIYTFNQVKPQTIPYTPRFLEVFLIYCHSANQWLTIEKYMTGEFRKYNNNNGDEITPTNTLEELMLAFSHWTYEYTRGELLVLDLQGVGENLTDPSVIKPEVKQSRGMVFGPANLGEDAIRNFIAKHHCNSCCRKLKLPDLKRNDYSPERINSTFGLEIKIESAEEPPARETGRNSPEDDMQL
Consider B6, for which the binding entry in experiment [2] is reported as “no binding”.

B7: GST-tagged TRPM6-(1730–end) L1919Q, expressed in HEK-293 cells (domain or fragment, UniProt Q9BX84 1730-2022)
chain: VQLFAGEEITVYRLEESSPLNLDKSMSSWSQRGRAAMIQVLSREEMDGGLRKAMRVVSTWSEDDILKPGQVFIVKSFLPEVVRTWHKIFQESTVLHLCLREIQQQRAAQKLIYTFNQVKPQTIPYTPRFLEVFLIYCHSANQWLTIEKYMTGEFRKYNNNNGDEITPTNTLEELMLAFSHWTYEYTRGEQLVLDLQGVGENLTDPSVIKPEVKQSRGMVFGPANLGEDAIRNFIAKHHCNSCCRKLKLPDLKRNDYSPERINSTFGLEIKIESAEEPPARETGRNSPEDDMQL
Take B7: in experiment [2], the binding result was “no binding”.
